Experimental data: the supplement of paper PMC4996465
Viability of KB3-1 and Nalm-6 cells after 48 h of drug alone (CellTiter-Glo), 11 doses over about 4.5 log units. % of DMSO wells, lower = more cell loss; AC50 from the fitted curve, lower = more potent. No active / inactive call. Nalm-6 was screened in two runs. AC50 is listed only for well-fitted inhibitory curves. KB3-1 is a HeLa-derived carcinoma line, Nalm-6 a B-cell precursor leukaemia line.

What was measured:
[1] = tested on: KB3-1; assay: viability (% of DMSO control); higher = more viable cells
Procedure: (§1)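 Eleven-dose screen of the NCATS MIPE 3 library on cells without co-treatment; CellTiter-Glo after 48 h, as % of DMSO wells.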

[2] = tested on: Nalm-6; assay: as above
Procedure: as §1

CNC(=O)c1ccc(N2C(=S)N(c3ccc(C#N)c(C(F)(F)F)c3)C(=O)C23CCC3)cc1F [RD-162]
Details	viability [%]
[1], 0.00078 µM	101
[1], 0.00234 µM	98.9
[1], 0.00702 µM	96.7
[1], 0.0211 µM	104
[1], 0.0632 µM	105
[1], 0.19 µM	100
[1], 0.569 µM	101
[1], 1.71 µM	97.9
[1], 5.12 µM	97.2
[1], 15.4 µM	98
[1], 46.1 µM	78.7
[2], run: 1, 0.00078 µM	23.3
[2], run: 1, 0.00234 µM	71.9
[2], run: 1, 0.00702 µM	64.7
[2], run: 1, 0.0211 µM	74.5
[2], run: 1, 0.0632 µM	82.9
[2], run: 1, 0.19 µM	96.7
[2], run: 1, 0.569 µM	111
[2], run: 1, 1.71 µM	107
[2], run: 1, 5.12 µM	105
[2], run: 1, 15.4 µM	104
[2], run: 1, 46.1 µM	71.7
[2], run: 2, 0.00078 µM	108
[2], run: 2, 0.00234 µM	112
[2], run: 2, 0.00702 µM	111
[2], run: 2, 0.0211 µM	115
[2], run: 2, 0.0632 µM	113
[2], run: 2, 0.19 µM	114
[2], run: 2, 0.569 µM	111
[2], run: 2, 1.71 µM	110
[2], run: 2, 5.12 µM	115
[2], run: 2, 15.4 µM	104
[2], run: 2, 46.1 µM	78.8

O=C(O)[C@H](Cc1c[nH]c2ccccc12)N1C(=O)c2ccccc2C1=O [RG-108]
Details	viability [%]
[1], 0.00078 µM	99
[1], 0.00234 µM	102
[1], 0.00702 µM	98.7
[1], 0.0211 µM	101
[1], 0.0632 µM	112
[1], 0.19 µM	111
[1], 0.569 µM	106
[1], 1.71 µM	114
[1], 5.12 µM	102
[1], 15.4 µM	90.1
[1], 46.1 µM	103
[2], run: 1, 0.00078 µM	101
[2], run: 1, 0.00234 µM	109
[2], run: 1, 0.00702 µM	110
[2], run: 1, 0.0211 µM	106
[2], run: 1, 0.0632 µM	106
[2], run: 1, 0.19 µM	101
[2], run: 1, 0.569 µM	110
[2], run: 1, 1.71 µM	109
[2], run: 1, 5.12 µM	111
[2], run: 1, 15.4 µM	109
[2], run: 1, 46.1 µM	105
[2], run: 2, 0.00078 µM	98.6
[2], run: 2, 0.00234 µM	98.8
[2], run: 2, 0.00702 µM	105
[2], run: 2, 0.0211 µM	105
[2], run: 2, 0.0632 µM	107
[2], run: 2, 0.19 µM	106
[2], run: 2, 0.569 µM	108
[2], run: 2, 1.71 µM	97.3
[2], run: 2, 5.12 µM	105
[2], run: 2, 15.4 µM	108
[2], run: 2, 46.1 µM	98.3

Cc1cc(Nc2cc(NC(=O)c3c(Cl)cccc3Cl)ccn2)nc(N)n1 [RO495]
Details	viability [%]
[1], 0.00078 µM	94.6
[1], 0.00234 µM	94.7
[1], 0.00702 µM	101
[1], 0.0211 µM	98.1
[1], 0.0632 µM	97.7
[1], 0.19 µM	67.1
[1], 0.569 µM	45.6
[1], 1.71 µM	44
[1], 5.12 µM	54.3
[1], 15.4 µM	72.7
[1], 46.1 µM	6.57
[2], run: 1, 0.00078 µM	109
[2], run: 1, 0.00234 µM	108
[2], run: 1, 0.00702 µM	116
[2], run: 1, 0.0211 µM	121
[2], run: 1, 0.0632 µM	113
[2], run: 1, 0.19 µM	87.2
[2], run: 1, 0.569 µM	47
[2], run: 1, 1.71 µM	79.9
[2], run: 1, 5.12 µM	82.6
[2], run: 1, 15.4 µM	63.7
[2], run: 1, 46.1 µM	5.77
[2], run: 2, 0.00078 µM	101
[2], run: 2, 0.00234 µM	109
[2], run: 2, 0.00702 µM	107
[2], run: 2, 0.0211 µM	111
[2], run: 2, 0.0632 µM	118
[2], run: 2, 0.19 µM	74.5
[2], run: 2, 0.569 µM	38.5
[2], run: 2, 1.71 µM	81.6
[2], run: 2, 5.12 µM	88.4
[2], run: 2, 15.4 µM	72.8
[2], run: 2, 46.1 µM	8.86

CC(C)(C)c1cc(C(=O)O)c(NC(=O)Nc2ccc3[nH]ncc3c2)s1 [S6K-18]
Details	viability [%]
[1], 0.00078 µM	97.3
[1], 0.00234 µM	100
[1], 0.00702 µM	99.8
[1], 0.0211 µM	97.3
[1], 0.0632 µM	103
[1], 0.19 µM	94.7
[1], 0.569 µM	100
[1], 1.71 µM	99.5
[1], 5.12 µM	97.9
[1], 15.4 µM	100
[1], 46.1 µM	104
[2], run: 1, 0.00078 µM	115
[2], run: 1, 0.00234 µM	121
[2], run: 1, 0.00702 µM	119
[2], run: 1, 0.0211 µM	115
[2], run: 1, 0.0632 µM	115
[2], run: 1, 0.19 µM	117
[2], run: 1, 0.569 µM	118
[2], run: 1, 1.71 µM	115
[2], run: 1, 5.12 µM	108
[2], run: 1, 15.4 µM	108
[2], run: 1, 46.1 µM	119
[2], run: 2, 0.00078 µM	108
[2], run: 2, 0.00234 µM	111
[2], run: 2, 0.00702 µM	111
[2], run: 2, 0.0211 µM	111
[2], run: 2, 0.0632 µM	109
[2], run: 2, 0.19 µM	103
[2], run: 2, 0.569 µM	104
[2], run: 2, 1.71 µM	111
[2], run: 2, 5.12 µM	109
[2], run: 2, 15.4 µM	107
[2], run: 2, 46.1 µM	103

Fc1ccc(Cl)cc1-c1nc(Nc2ccncc2)c2nccnc2n1 [SD-208]
Details	viability [%]
[1], 0.00078 µM	105
[1], 0.00234 µM	102
[1], 0.00702 µM	106
[1], 0.0211 µM	102
[1], 0.0632 µM	107
[1], 0.19 µM	109
[1], 0.569 µM	115
[1], 1.71 µM	108
[1], 5.12 µM	110
[1], 15.4 µM	106
[1], 46.1 µM	105
[2], run: 1, 0.00078 µM	103
[2], run: 1, 0.00234 µM	95.9
[2], run: 1, 0.00702 µM	95
[2], run: 1, 0.0211 µM	110
[2], run: 1, 0.0632 µM	105
[2], run: 1, 0.19 µM	119
[2], run: 1, 0.569 µM	120
[2], run: 1, 1.71 µM	105
[2], run: 1, 5.12 µM	107
[2], run: 1, 15.4 µM	94.8
[2], run: 1, 46.1 µM	82.3
[2], run: 2, 0.00078 µM	106
[2], run: 2, 0.00234 µM	103
[2], run: 2, 0.00702 µM	105
[2], run: 2, 0.0211 µM	108
[2], run: 2, 0.0632 µM	106
[2], run: 2, 0.19 µM	117
[2], run: 2, 0.569 µM	107
[2], run: 2, 1.71 µM	113
[2], run: 2, 5.12 µM	113
[2], run: 2, 15.4 µM	104
[2], run: 2, 46.1 µM	92.3

Cn1cc(-c2ccc3nnc(Sc4ccc5ncccc5c4)n3n2)cn1 [SGX-523]
Details	viability [%]
[1], 0.00078 µM	96.3
[1], 0.00234 µM	103
[1], 0.00702 µM	96.2
[1], 0.0211 µM	102
[1], 0.0632 µM	99.4
[1], 0.19 µM	97.9
[1], 0.569 µM	96.8
[1], 1.71 µM	102
[1], 5.12 µM	101
[1], 15.4 µM	104
[1], 46.1 µM	101
[2], run: 1, 0.00078 µM	93.7
[2], run: 1, 0.00234 µM	98.7
[2], run: 1, 0.00702 µM	99.6
[2], run: 1, 0.0211 µM	102
[2], run: 1, 0.0632 µM	105
[2], run: 1, 0.19 µM	108
[2], run: 1, 0.569 µM	106
[2], run: 1, 1.71 µM	113
[2], run: 1, 5.12 µM	112
[2], run: 1, 15.4 µM	110
[2], run: 1, 46.1 µM	98.1
[2], run: 2, 0.00078 µM	97.7
[2], run: 2, 0.00234 µM	97.7
[2], run: 2, 0.00702 µM	98.9
[2], run: 2, 0.0211 µM	100
[2], run: 2, 0.0632 µM	103
[2], run: 2, 0.19 µM	101
[2], run: 2, 0.569 µM	98.6
[2], run: 2, 1.71 µM	105
[2], run: 2, 5.12 µM	108
[2], run: 2, 15.4 µM	110
[2], run: 2, 46.1 µM	108

Cc1cccc(-c2n[nH]cc2-c2ccc3ncccc3n2)n1 [SJN 2511]
Details	viability [%]
[1], 0.00156 µM	102
[1], 0.00468 µM	111
[1], 0.014 µM	104
[1], 0.0421 µM	109
[1], 0.126 µM	107
[1], 0.379 µM	109
[1], 1.14 µM	114
[1], 3.41 µM	117
[1], 10.2 µM	116
[1], 30.7 µM	119
[1], 92.2 µM	100
[2], run: 1, 0.00156 µM	98.2
[2], run: 1, 0.00468 µM	111
[2], run: 1, 0.014 µM	107
[2], run: 1, 0.0421 µM	129
[2], run: 1, 0.126 µM	129
[2], run: 1, 0.379 µM	119
[2], run: 1, 1.14 µM	124
[2], run: 1, 3.41 µM	124
[2], run: 1, 10.2 µM	115
[2], run: 1, 30.7 µM	121
[2], run: 1, 92.2 µM	79.9
[2], run: 2, 0.00156 µM	96
[2], run: 2, 0.00468 µM	95.8
[2], run: 2, 0.014 µM	95.2
[2], run: 2, 0.0421 µM	107
[2], run: 2, 0.126 µM	103
[2], run: 2, 0.379 µM	101
[2], run: 2, 1.14 µM	104
[2], run: 2, 3.41 µM	99.4
[2], run: 2, 10.2 µM	95.7
[2], run: 2, 30.7 µM	96.3
[2], run: 2, 92.2 µM	67.9
